# From the supplement of paper PMC9446081
# The campaign covered roughly 39,000 compounds. About 220 (0.56%) showed activity. The list shows a part of the results.
# System: Escherichia coli K-12 BW25113
# Assay: relative growth (OD600 normalised to plate interquartile mean) (fraction); higher = less growth inhibition, active = 0.2 or less
# Settings: 50 µM; LB; incubation time: overnight (16-24 h)
# 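Also: static incubation at 37 °C against the wild-type strain, values averaged over two biological replicates.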
row,Compound,relative growth
1,C[C@@H]1CN([C@H](C)CO)S(=O)(=O)c2ccc(C#CCN(C)C)cc2O[C@H]1CN(C)C(=O)c1ccccc1F,inactive: 0.962
2,COC(=O)c1c2oc(c1C(=O)OC)C(=O)N[C@H](Cc1ccccc1)Cn1cc(nn1)CNC(=O)[C@@H](Cc1ccccc1)NC(=O)N[C@@H](COC(=O)NCCCCCC(=O)NO)CC2,inactive: 0.987
3,C[C@H]1CN([C@@H](C)CO)C(=O)c2cccc(NC(=O)C3CCCCC3)c2O[C@H]1CN(C)S(=O)(=O)c1cn(C)cn1,inactive: 1.05
4,C[C@@H]1CN([C@H](C)CO)C(=O)c2cccc(NC(=O)CCCCCC(=O)Nc3ccccc3N)c2O[C@H]1CN(C)Cc1ccc(C(F)(F)F)cc1,inactive: 0.968
5,C[C@@H](NC(=O)N(C)C[C@@H]1OCc2ccccc2-c2ccccc2C(=O)N([C@@H](C)CO)C[C@@H]1C)c1ccccc1,inactive: 0.975
6,CN(C)CC(=O)N[C@@H]1CC[C@@H](CCNS(=O)(=O)c2ccccc2)O[C@H]1CO,inactive: 1.02
7,C[C@@H]1CCCCO[C@H](CN(C)C(=O)Cc2ccccc2)[C@@H](C)CN([C@H](C)CO)C(=O)c2cc(NC(=O)CCC(F)(F)F)ccc2O1,inactive: 0.975
8,C[C@@H]1CN([C@@H](C)CO)C(=O)c2cc(NC(=O)Cc3cn(C)c4ccccc34)ccc2O[C@@H]1CN(C)S(=O)(=O)c1cn(C)cn1,inactive: 1
9,C[C@@H]1CN([C@H](C)CO)C(=O)c2cc(NC(=O)Nc3ccc4c(c3)OCO4)ccc2O[C@@H](C)CCCCO[C@H]1CN(C)Cc1ccc(Cl)c(Cl)c1,inactive: 1.01
10,CCSC(=S)N[C@H]1CCS(=O)(=O)C1,inactive: 0.928
11,C[C@@H]1CN([C@H](C)CO)C(=O)c2cccc(NC(=O)c3ccc(-c4nccs4)cc3)c2O[C@@H]1CN(C)C(=O)Nc1ccccc1,inactive: 0.999
12,O=C(C[C@H]1C=C[C@@H](NS(=O)(=O)c2ccccc2)[C@@H](CO)O1)NCc1ccncn1,inactive: 0.99
13,CC(C)NC(=O)Nc1ccc2c(c1)C(=O)N([C@@H](C)CO)C[C@@H](C)[C@H](CN(C)Cc1ccc(C(=O)O)cc1)O2,inactive: 0.988
14,COc1cccc(S(=O)(=O)N(C)C[C@@H]2Oc3cc(C4=CCCC4)ccc3S(=O)(=O)N([C@@H](C)CO)C[C@H]2C)c1,inactive: 1.08
15,COCC(=O)Nc1ccc2c(c1)C(=O)N(C)C[C@H](OC)[C@H](C)CN(C(=O)c1ccccc1F)[C@H](C)CO2,inactive: 1.01
16,CCOC(=O)c1c[nH]c(CC(C)=O)nc1=O,inactive: 0.999
17,C[C@@H]1CN([C@@H](C)CO)S(=O)(=O)c2ccc(-c3cccc(C#N)c3)cc2O[C@@H]1CN(C)C(=O)c1ccncc1,inactive: 1.01
18,COc1cccc2c1C(=O)c1c(O)c3c(c(O)c1C2=O)CC(O)(C(=O)CO)CC3OC1CC(N)C(O)C(C)O1.Cl (centres undefined),inactive: 1.02
19,COCCOC(=O)N1C(=O)[C@@]2(c3cc(C#CCNC(N)=O)ccc31)[C@H](C(N)=O)[C@H]1C(=O)O[C@H](c3ccccc3)[C@H](c3ccccc3)N1[C@@H]2c1ccccc1OCCO,inactive: 0.947
20,Cc1ccc(S(=O)(=O)Nc2ccc3c(c2)C(=O)N([C@H](C)CO)C[C@@H](C)[C@H](CN(C)Cc2ccc(Oc4ccccc4)cc2)O3)cc1,inactive: 1

row,Compound,relative growth
1,COc1ccc(S(=O)(=O)Nc2ccc3c(c2)C(=O)N([C@@H](C)CO)C[C@H](C)[C@@H](CN(C)C(=O)C2CCCCC2)OCCCC[C@H](C)O3)cc1,inactive: 0.976
2,COc1ccc(COC[C@]23NC(=S)N[C@H](c4ccccc4O2)[C@H]3CO[Si](C)(C)C(C)(C)C)cc1,inactive: 0.991
3,Cc1nc(N=Nc2cc(S(=O)(=O)O)c3cc([N+](=O)[O-])cc(S(=O)(=O)O)c3c2)c(COP(=O)(O)O)c(C=O)c1O,inactive: 0.968
4,Cc1noc(C)c1NC(=O)Nc1cccc2c1O[C@H](CN(C)S(=O)(=O)c1cn(C)cn1)[C@H](C)CN([C@@H](C)CO)C2=O,inactive: 1.02
5,NC(CSCSCC(N)C(=O)O)C(=O)O (centres undefined),inactive: 0.917
6,COC(=O)[C@H](Cc1ccc(N=[N+]=[N-])cc1)N1CC2=C[C@@H](C3CC3)n3c(=O)n(C)c(=O)n3[C@H]2[C@@H]1[C@@H](O)Cc1ccccc1,inactive: 0.989
7,COc1cccc(S(=O)(=O)N(C)C[C@@H]2Oc3ncc(C#Cc4ccc(F)cc4)cc3C(=O)N([C@H](C)CO)C[C@@H]2C)c1,inactive: 1.05
8,COc1ccc(CN(C)C[C@@H]2Oc3ccc(NC(=O)Cn4cnnn4)cc3C(=O)N([C@H](C)CO)C[C@H]2C)cc1,inactive: 0.98
9,COc1ccc(CN(C)C[C@@H]2Oc3ccc(NS(=O)(=O)c4c(C)noc4C)cc3CC(=O)N([C@@H](C)CO)C[C@H]2C)cc1,inactive: 0.999
10,COCC#Cc1ccc2c(c1)O[C@H](CN(C)C(=O)C1CCCCC1)[C@@H](C)CN([C@H](C)CO)S2(=O)=O,inactive: 1.03
11,CC(C)NC(=O)Nc1cccc2c1O[C@H](CN(C)Cc1ccc(Oc3ccccc3)cc1)[C@@H](C)CN([C@H](C)CO)C2=O,inactive: 0.985
12,C[C@@H]1CN([C@H](C)CO)C(=O)c2cccc(NC(=O)C3CCOCC3)c2O[C@@H]1CN(C)Cc1ccc(Oc2ccccc2)cc1,inactive: 0.988
13,COc1ccccc1CNC(=O)C[C@H]1C[C@@H]2c3cc(NS(=O)(=O)c4ccc(F)cc4)ccc3O[C@@H]2[C@H](CO)O1,inactive: 0.996
14,COC(=O)[C@H]1CCc2nc[nH]c2C1,inactive: 1
15,CO[C@H]1CN(C)C(=O)c2cc(NS(C)(=O)=O)ccc2OC[C@@H](C)N(C(=O)C2CCCCC2)C[C@@H]1C,inactive: 0.99
16,COc1ccc(CNC(=O)C[C@@H]2C[C@@H]3c4cc(NS(=O)(=O)c5ccc(F)cc5)ccc4O[C@@H]3[C@@H](CO)O2)cc1,inactive: 1.01
17,COc1ccccc1-c1ccc2c(c1)O[C@H](CN(C)CC1CCOCC1)[C@H](C)CN([C@H](C)CO)S2(=O)=O,inactive: 0.93
18,COc1ccc(S(=O)(=O)N(C)C[C@H]2Oc3ccc(NC(=O)Cn4cnnn4)cc3C(=O)N([C@H](C)CO)C[C@@H]2C)cc1,inactive: 1.01
19,C[C@H](CO)N1C[C@H](C)[C@H](CN(C)S(C)(=O)=O)Oc2ccc(NC(=O)Nc3ccc(C(F)(F)F)cc3)cc2CC1=O,inactive: 0.974
20,CN[C@@H]1[C@H](O[C@H]2[C@H](O[C@@H]3[C@@H](O)[C@H](O)[C@@H](NC(=N)N)[C@H](O)[C@H]3NC(=N)N)O[C@@H](C)[C@]2(O)C=O)O[C@@H](CO)[C@H](O)[C@H]1O,inactive: 0.972

row,Compound,relative growth
1,Cc1noc(C)c1S(=O)(=O)Nc1ccc2c(c1)C(=O)N([C@H](C)CO)C[C@H](C)[C@H](CN(C)S(C)(=O)=O)OCCCC[C@@H](C)O2,inactive: 1.01
2,C[C@H]1CN([C@@H](C)CO)C(=O)CCCn2cc(nn2)CO[C@@H]1CN(C)S(=O)(=O)c1ccc(-n2cccn2)cc1,inactive: 1
3,COc1ccc(NC(=O)Nc2ccc3c(c2)C(=O)N([C@@H](C)CO)C[C@@H](C)[C@@H](CN(C)C(=O)Nc2cccc4ccccc24)OCCCC[C@H](C)O3)cc1,inactive: 1.01
4,C[C@H](CO)NS(=O)(=O)c1ccnn1C,inactive: 0.987
5,C[C@@H]1CCCCO[C@@H](CN(C)C(=O)C2CCCCC2)[C@@H](C)CN([C@H](C)CO)C(=O)c2cc(NC(=O)Nc3ccccc3)ccc2O1,inactive: 0.95
6,O=C(C[C@H]1CC[C@@H]2NC[C@H](O)COC[C@H]2O1)NCCN1CCCC1,inactive: 0.997
7,COc1ccc(S(=O)(=O)Nc2ccc3c(c2)C(=O)N([C@@H](C)CO)C[C@H](C)[C@@H](CN(C)Cc2ccc4c(c2)OCO4)OCCCC[C@H](C)O3)cc1,inactive: 1.01
8,COC(=O)C[C@@H]1CC[C@H]2[C@@H](COC[C@H](O)CN2S(=O)(=O)c2ccccc2C)O1,inactive: 0.876
9,C[C@@H]1CCCCO[C@@H](CN(C)CC2CCCCC2)[C@@H](C)CN([C@H](C)CO)C(=O)c2cc(NC(=O)Nc3ccc(C(F)(F)F)cc3)ccc2O1,inactive: 0.969
10,Cn1nccc1NC(=O)COCC(=O)O,inactive: 1.04
11,C[C@@H]1CN([C@H](C)CO)C(=O)c2cccc(NC(=O)Nc3ccc(F)cc3)c2O[C@@H]1CN(C)Cc1ccc(C(=O)Nc2ccccc2N)cc1,inactive: 0.995
12,COc1ccc(C2=N[C@@H](c3ccc(Cl)cc3)[C@@H](c3ccc(Cl)cc3)N2C(=O)N2CCNC(=O)C2)c(OC(C)C)c1,inactive: 1.01
13,Cc1ccc(S(=O)(=O)Nc2ccc3c(c2)C(=O)N([C@@H](C)CO)C[C@H](C)[C@@H](CN(C)S(=O)(=O)c2ccc(Cl)cc2)OCCCC[C@@H](C)O3)cc1,inactive: 1.04
14,OCC1=C[C@@H](O)[C@@H]2C=CO[C@@H](O[C@@H]3O[C@H](CO)[C@@H](O)[C@H](O)[C@H]3O)[C@H]12,inactive: 0.993
15,NC(=O)NS(=O)(=O)c1ccc(N)cc1,inactive: 1.06
16,C[C@H]1CN([C@@H](C)CO)S(=O)(=O)c2ccc(-c3cccnc3)cc2O[C@H]1CN(C)CC1CCOCC1,inactive: 1
17,COc1ccc(C#Cc2cnc3c(c2)C(=O)N([C@H](C)CO)C[C@H](C)[C@H](CN(C)S(C)(=O)=O)O3)cc1OC,inactive: 0.907
18,CS(=O)(=O)CC(=O)N1C[C@H]2COC[C@@]2(COc2cccnc2)C1,inactive: 0.997
19,Cc1ccc(S(=O)(=O)Nc2ccc3c(c2)C(=O)N([C@H](C)CO)C[C@@H](C)[C@@H](CN(C)S(=O)(=O)c2c(C)noc2C)O3)cc1,inactive: 0.997
